The record followed here is the antibiotic and cytotoxicity screens of Wong et al. (2023).

Each structure is given as a SMILES string. This is one part of the list.

The subject of the test is S. aureus RN4220. Kind of test: growth inhibition call (relative growth <= 0.2). Conditions: 50 µM.
With `C[C@H]1CCCCO[C@@H](CN(C)Cc2ccccc2)[C@@H](C)CN([C@@H](C)CO)C(=O)c2cc(NC(=O)C3CCCCC3)ccc2O1`, the growth inhibition call was “inactive”. Then `C[C@@H]1CN([C@H](C)CO)C(=O)c2cc(/C=C/c3ccccc3)cnc2O[C@@H]1CN(C)C(=O)c1cnccn1`, with “inactive”; and `COc1ccc(NC(=O)Nc2ccc3c(c2)C(=O)N([C@H](C)CO)C[C@@H](C)[C@H](CN(C)C(=O)Nc2ccc(F)cc2)OCCCC[C@@H](C)O3)cc1`, with “inactive”; and `Cc1cc(NC(=O)CCCC(=O)O)n(C)n1`, with “inactive”. In the case of `C[C@@H]1CN([C@H](C)CO)S(=O)(=O)c2ccc(Br)cc2O[C@@H]1CN(C)S(=O)(=O)c1ccc(F)cc1` it was “inactive”; in that of `COc1ccc(S(=O)(=O)N2C[C@@H](O)COC[C@@H]3O[C@@H](CC(=O)N[C@H]4CCN(Cc5ccccc5)C4)CC[C@H]32)cc1`, “inactive”.

`O=C(N1CCOCC1)[C@@]1(CCS(=O)(=O)c2ccccc2)COC(c2ccc(OCCCO)cc2)=N1`: the growth inhibition call is “inactive”.

With `COc1ncnc(N)c1OC`, the growth inhibition call was “inactive”. Then `C[C@@H]1CN([C@@H](C)CO)C(=O)c2cccc(NC(=O)Nc3ccc(F)cc3)c2O[C@H]1CN(C)Cc1ccc(Cl)c(Cl)c1`, with “inactive”; and `Cc1ccc(S(=O)(=O)N(C)C[C@H]2Oc3c(NS(=O)(=O)c4ccc(F)cc4)cccc3C(=O)N([C@@H](C)CO)C[C@@H]2C)cc1`, with “inactive”; and `COC(=O)c1c(CC[C@@H](CO)NC(=O)N[C@@H](C)Cn2cc(-c3ccccn3)nn2)oc(C(C)=O)c1C(=O)OC`, with “inactive”.

For the compound `O=C(c1ccc(Cl)cc1)n1c2ccccc2c2ccccc21`, the growth inhibition call was “inactive”. In the case of `O=C(O)/C=C/C(=O)N1CCN(C(=O)/C=C/C(=O)O)CC1` it was “inactive”; in that of `C[C@H]1CN([C@@H](C)CO)C(=O)Cc2cc(NC(=O)NC3CCCCC3)ccc2O[C@@H]1CN(C)Cc1ccc(Cl)c(Cl)c1`, “inactive”. In the case of `CCC[C@@H](O)C#Cc1cnc2c(c1)C(=O)N([C@H](C)CO)C[C@H](C)[C@H](CN(C)C(=O)Nc1ccc(F)cc1)O2` it was “inactive”.

Regarding `CC(C)NC(=O)Nc1cccc2c1O[C@H](CN(C)S(=O)(=O)c1cccs1)[C@@H](C)CN([C@@H](C)CO)C2=O`, the growth inhibition call is “inactive”. Then `O=C1CCC(C(=O)N2CSCC2C(=O)O)N1` (stereo not given), with “inactive”; and `CN1C(=O)c2cc(NC(=O)c3cccs3)ccc2OC[C@@H]2O[C@H](CC(=O)NCC(F)(F)F)CC[C@H]21`, with “inactive”; and `C[C@@H]1CN([C@H](C)CO)C(=O)c2cc(NC(=O)Cc3ccccc3)ccc2O[C@@H](C)CCCCO[C@@H]1CN(C)C(=O)CCC(F)(F)F`, with “inactive”.

In the case of `COC(=O)/C=C/c1cn([C@H]2OC[C@@H](CO)[C@@H]2O)c(=O)[nH]c1=O`, the growth inhibition call is “inactive”. Then `C[C@@H](O)c1ccc2ccccc2c1`, with “inactive”; and `O=c1nc(Nc2ccccc2)[nH]c(=O)[nH]1`, with “inactive”.

Regarding `CCOC(=O)c1cc2c(c(-c3cccc(C#CCN(C)C)c3)n1)[C@@H](CCO[Si](C)(C)C(C)(C)C)N([S@](=O)C(C)(C)C)C2`, the growth inhibition call is “inactive”. In the case of `Cc1ccc(S(=O)(=O)Nc2cccc3c2O[C@H](CN(C)Cc2ccc(Cl)c(Cl)c2)[C@@H](C)CN([C@H](C)CO)C3=O)cc1` it was “inactive”; in that of `O=C(NCc1csnn1)c1csnn1`, “inactive”; in that of `C[C@@H]1CCCCO[C@@H](CN(C)C(=O)c2ccccc2)[C@@H](C)CN([C@H](C)CO)C(=O)c2cc(NS(=O)(=O)c3ccc(Cl)cc3)ccc2O1`, “inactive”.

Take `CS(=O)(=O)N1C[C@H](O)COC[C@@H]2O[C@@H](CC(=O)NCCc3ccncc3)CC[C@H]21`: the growth inhibition call was “inactive”.

As for `COCC(=O)N1C[C@@H](C)[C@@H](OC)CN(C)C(=O)c2cc(NC(=O)c3ccc(OC)cc3)ccc2OC[C@@H]1C`, the growth inhibition call is “inactive”. Take `CC(C)NC(=O)N(C)C[C@H]1Oc2ccc(NS(=O)(=O)c3ccc(F)cc3)cc2CC(=O)N([C@H](C)CO)C[C@@H]1C`: the growth inhibition call is “inactive”. In the case of `Cc1noc(C)c1NC(=O)Nc1ccc2c(c1)C(=O)N([C@H](C)CO)C[C@H](C)[C@H](CN(C)C(=O)Nc1cccc3ccccc13)O2` it was “inactive”; in that of `CCCNC(=O)[C@@]1(C)c2ccccc2C(=O)N(Cc2ccc(OC(F)(F)F)cc2)[C@H]1c1ccc(CO)cc1`, “inactive”.

Regarding `Cc1noc(C)c1S(=O)(=O)Nc1ccc2c(c1)C(=O)N([C@@H](C)CO)C[C@H](C)[C@@H](CN(C)C(=O)Nc1ccc(C(F)(F)F)cc1)OCCCC[C@@H](C)O2`, the growth inhibition call was “inactive”.

For `CCCC#Cc1ccc2c(c1)O[C@@H](CN(C)S(=O)(=O)c1cccc(F)c1)[C@@H](C)CN([C@@H](C)CO)S2(=O)=O`, the growth inhibition call is “inactive”. In the case of `COc1ccc(CN(C)C[C@H]2OCCCC[C@@H](C)Oc3ccc(NC(=O)NC(C)C)cc3C(=O)N([C@H](C)CO)C[C@H]2C)cc1` it was “inactive”. In the case of `CN(C)C(=O)C[C@@H]1CC[C@H](NC(=O)C2CCOCC2)[C@H](CO)O1` it was “inactive”; in that of `C[C@H]1CN([C@@H](C)CO)C(=O)c2cccc(NC(=O)C3CCOCC3)c2O[C@@H]1CN(C)C(=O)NC1CCCCC1`, “inactive”.

As to `C[C@H]1CCCCO[C@H](CN(C)Cc2ccc3c(c2)OCO3)[C@@H](C)CN([C@@H](C)CO)C(=O)c2cc(NC(=O)CCC(F)(F)F)ccc2O1`, the growth inhibition call was “inactive”. In the case of `COc1ccc(S(=O)(=O)Nc2ccc3c(c2)C(=O)N([C@@H](C)CO)C[C@@H](C)[C@@H](CN(C)C(=O)Nc2ccccc2)OCCCC[C@H](C)O3)cc1` it was “inactive”; in that of `O=C(C[C@H]1C=C[C@@H](NC(=O)c2cccc(F)c2)[C@@H](CO)O1)NCCN1CCCC1`, “inactive”; in that of `C[C@H]1CCCCO[C@@H](CN(C)CC2CCCCC2)[C@@H](C)CN([C@@H](C)CO)C(=O)c2cc(NC(=O)CCCN(C)C)ccc2O1`, “inactive”.
